Test results as given in PubChem BioAssay AID488969 (Vanderbilt High Throughput Screening Facility, 2010).
Over roughly 110,000 compounds, “z-score” has its median near -0.1; the highest 2% begin near 2. Some of the results follow.

What follows are compounds tested against Metabotropic glutamate receptor 8 (Rattus norvegicus) (UniProt P70579) (assay: rat mGluR8 modulators via GIRK flux, primary screen, cell-based, thallium flux, HTS (AID 488969)). Conditions: HEK293 rat mGluR8, GIRK (G protein-gated inwardly rectifying potassium channel) thallium flux, FluoZin2; at 10 µM; stronger effect = higher value; submaximal glutamate (EC20) added with thallium.
UniProt P70579, sequence (P70579 whole entry, looked up): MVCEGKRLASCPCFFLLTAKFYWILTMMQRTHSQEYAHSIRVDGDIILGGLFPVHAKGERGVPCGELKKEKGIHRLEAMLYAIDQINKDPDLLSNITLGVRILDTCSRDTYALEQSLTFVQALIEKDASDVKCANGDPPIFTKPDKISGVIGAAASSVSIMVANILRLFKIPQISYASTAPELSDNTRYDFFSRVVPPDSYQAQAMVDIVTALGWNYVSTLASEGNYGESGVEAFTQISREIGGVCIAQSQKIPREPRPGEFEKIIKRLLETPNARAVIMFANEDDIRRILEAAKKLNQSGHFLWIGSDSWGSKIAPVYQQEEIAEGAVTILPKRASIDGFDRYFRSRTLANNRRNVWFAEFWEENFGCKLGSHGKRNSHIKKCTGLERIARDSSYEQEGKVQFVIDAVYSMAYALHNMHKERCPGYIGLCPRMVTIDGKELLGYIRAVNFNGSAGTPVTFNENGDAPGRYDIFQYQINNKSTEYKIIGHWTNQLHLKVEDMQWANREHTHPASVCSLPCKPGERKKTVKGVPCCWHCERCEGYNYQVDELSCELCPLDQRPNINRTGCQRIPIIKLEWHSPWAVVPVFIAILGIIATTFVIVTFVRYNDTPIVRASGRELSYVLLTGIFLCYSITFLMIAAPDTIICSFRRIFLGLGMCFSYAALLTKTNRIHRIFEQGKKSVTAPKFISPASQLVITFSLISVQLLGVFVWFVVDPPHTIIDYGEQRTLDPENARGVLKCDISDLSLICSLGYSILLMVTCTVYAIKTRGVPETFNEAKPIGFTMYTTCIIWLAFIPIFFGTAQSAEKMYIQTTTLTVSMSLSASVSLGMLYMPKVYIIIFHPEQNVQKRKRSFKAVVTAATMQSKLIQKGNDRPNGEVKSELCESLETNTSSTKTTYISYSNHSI

Structure (SMILES) | z-score
O=C(CSC1c2ccccc2C(=O)N1c1ccccc1)N1CCOCC1 (stereo not drawn) | 0.895
Nc1cc(C(=O)OCC(=O)NCc2ccco2)ccc1Cl | 0.0196
CCCn1c(NCc2cccc(OC)c2O)nc2ccccc21 | 0.637
Cc1cccc(C)c1NC(=O)CSc1nc(-c2ccco2)cc(C(F)(F)F)n1 | 0.033
CCCN(CCC)C(=O)C1c2ccccc2Oc2ccccc21 | -1.23
Cc1cccc(N=C(N2CCOCC2)P(=O)(N2CCOCC2)N2CCOCC2)c1 | 0.413
CCn1c(C(=O)Nc2ccsc2C(=O)OC)cc2sc(Cl)cc21 | -0.142
Cc1ccccc1-n1c(SCC(=O)N2CCOCC2)nc(O)cc1=O | 0.189
O=C(Cn1c(O)c(/C=C2\C=Nc3ccccc32)sc1=O)Nc1ccc2c(c1)OCO2 | 0.0985
COc1ccc(OCCSc2nnc3c(Cl)cc(Cl)cn23)cc1 | -0.0313
COc1ccccc1-c1cc(C(=O)Nc2cc(C)nn2-c2ccccc2)no1 | -0.127
O=C1CCc2nc3sc4c(c3c(=O)n2N1)CCCC4 | 0.641
Cn1nc(-c2ccc(Cl)cc2)c2cc(C(=O)NCc3ccco3)sc21 | -0.333
Cc1ccc(C23CC4CC(CC(C(=O)N5CCOCC5)(C4)C2)C3)cc1 | 0.66
CC(=O)Oc1ccc2nc(-c3cccs3)oc(=O)c2c1 | -1.1
Cn1c(SCC(=O)n2c3c(c4ccccc42)CCCC3)nnc1-c1ccccc1 | -0.201
Cc1ccc(C(=O)Oc2coc(CSc3nnc(NC(=O)c4cccs4)s3)cc2=O)cc1C | 0.268
CN(C)CCCn1c(-c2ccccc2)nc(=S)c2c1CCCC2 | -0.077
O=C1c2ccccc2C(Nc2ccc3c(c2)OCO3)N1Cc1ccc2c(c1)OCO2 (stereo not drawn) | -0.761
CC12CCC(C(=O)NCCCn3ccnc3)(OC1=O)C2(C)C (stereo not drawn) | 0.102

Structure (SMILES) | z-score
Cc1ccc(S(=O)(=O)N2CCCC(C(=O)NC3=NCCS3)C2)cc1 (stereo not drawn) | 0.373
COc1ccc(OC)c(C2C3=C(CCCC3=O)Nc3c2c(=O)n(C)c(=O)n3C)c1 (stereo not drawn) | -0.296
CC(=O)c1cccc(NC(=O)C2CC(c3ccc(F)cc3)=NO2)c1 (stereo not drawn) | -0.0875
CCOC(=O)c1ccc(-n2c(C)ccc2C)cc1 | -0.201
CCOC(=O)C1=C(C)NC(=O)NC1C1CC=CCC1 (stereo not drawn) | -0.513
O=C(COc1ccccc1)NCC(=O)Nc1cccc2ccccc12 | 0.0758
COc1ccc(-c2nn(-c3ccccc3)cc2C(=O)n2nnc3ccccc32)cc1 | -0.272
CCCCCn1c(SCC(=O)OCC)nc2cc(C(=O)NCc3ccco3)ccc2c1=O | -0.374
c1ccc(Cc2nn3c(COc4ccccc4)nnc3s2)cc1 | -0.665
O=C(c1ccc(-c2nnc(-c3ccccc3)o2)cc1)N1CCCCCC1 | 0.00936
COc1ccc(OC2C(=O)N(Cc3ccc(F)cc3)C2c2ccc(OC)c(OC)c2)cc1 (stereo not drawn) | -0.194
CC(C)CCNC(=O)CCC(=O)NNc1nc2ccccc2c2nc(-c3ccccc3)nn12 | 0.521
C/C(=N\Nc1ncc(Cl)cc1Cl)c1ccc(S(=O)(=O)NCc2ccco2)cc1 | -0.286
CCCCCc1c(C)nc(SCC(=O)O)[nH]c1=O | 0.239
Cn1c(SCC(=O)NCC2CCCO2)nnc1-c1ccc(S(=O)(=O)N2CCCC2)cc1 (stereo not drawn) | -0.000704
COc1ccc(Nc2oc(-c3ccccc3Cl)nc2C#N)cc1 | -0.121
CCOC(=O)C1CCCN(C(=O)c2ccc(C)cc2O)C1 (stereo not drawn) | -0.218
CCC(C)OC(=O)C(C)Oc1ccc(-c2ccccc2)cc1 (stereo not drawn) | -0.427
CCNC(=O)CN(c1ccc(Cl)cc1)S(=O)(=O)c1ccccc1 | 0.338
O=S1(=O)C=CC(N2CCOCC2)C1 (stereo not drawn) | -0.0822

Structure (SMILES) | z-score
O=C(Nc1ccccc1)N1CCN(c2ccccn2)CC1 | -0.185
Cn1c(SCC(=O)c2ccccc2)nnc1-c1cccnc1 | 0.0309
COc1ccc(C(C)C)cc1S(=O)(=O)Nc1ccccn1 | 0.0145
FC(F)(F)c1cccc(Sc2nc(-c3ccccc3)nnc2C(F)(F)F)c1 | 0.0555
NC(=O)C1CNc2ccccc2O1 (stereo not drawn) | 2.79
CCOC(=O)c1[nH]c(COC(=O)CCOc2ccccc2OC)c(C(=O)OCC)c1C | -0.212
COc1cccc(N2CCN(C3CC(=O)N(c4ccc(F)c(Cl)c4)C3=O)CC2)c1 (stereo not drawn) | -0.0211
Cc1ccc(NC(=O)C2CCCN2S(=O)(=O)c2cccc3cccnc23)cc1F (stereo not drawn) | 2.9
N#Cc1cccc(N=Cc2c(O)ccc3ccccc23)c1 | -0.114
O=C(NC(Cc1ccc(F)cc1)C(=O)O)c1ccccc1 (stereo not drawn) | -0.211
O=C(CSc1ccc(Cl)cc1)N1CCC(c2nc3ccccc3s2)CC1 | 0.346
COc1ccccc1C(=O)NN1C(=O)C2C3C=CC(O3)C2C1=O (stereo not drawn) | 0.0263
Cc1ccc(Sc2nc(-c3ccccc3)ccc2C#N)cc1 | -0.78
O=C(c1nc2ncccn2n1)N1CCN(c2ccc(F)cc2)CC1 | -0.106
O=C(Nc1ccc(F)cc1)c1ccccc1CC[N+](=O)[O-] | 0.596
O=c1c2ccccc2nc(N/N=C/c2ccc(O)cc2)n1O | -0.0395
N#Cc1c(N)nc2c(c1-c1ccco1)CCCCC2 | 0.613
O=C(O)C1CC(=O)N(c2ccc3c(c2)OCCO3)C1 (stereo not drawn) | -0.0902
